These results are taken from patent US20220193124A1, “Therapeutic Agent for Flavivirus Infection” (NEOPHARMA JAPAN CO., LTD., priority 2019, published 2022).

Structures are written as SMILES.

The series has as its system cells infected with the Japanese encephalitis virus Nakayama strain (JEV Nakayama). The series is described as follows: Cell toxicity in Japanese encephalitis virus infected cells, optical microscope observation. The following applies: 0.2 mM; treated for 2 days; FIG. 18.

As to `Cl.NCC(=O)CCC(=O)O` [5-ALA, 5-aminolevulinic acid hydrochloride], the “cell toxicity (detachment of cells)” value is reported as “did not show detachment”.
